Measured values reported in patent publication US20250388696A1 (NAVIGO PROTEINS, published 2025).

What was measured:
human serum albumin = biological target: T1, human serum albumin (human, UniProt P02768 25-609); assay: SPR, HSA immobilised on the chip, pH 7.3, 1:1 Langmuir fit
T1 construct: also called HSA
Description: (§1) Recombinant protein A, HSA, MSA or target (either ED-B or Her2) was immobilized on a High Capacity Amine sensor chip (Bruker) after NHS/EDC activation with a Sierra SPR-32 system (Bruker). The chip was equilibrated with SPR running buffer (PBS 0.05%, Tween pH 7.3). Injection of ethanolamine after target immobilization was used to block free NHS groups. To determine the binding of fusion proteins to FAP, the Fc-tagged target was injected with 60 or 30 nM to Protein A coupled spots followed by the injection of fusion proteins.
(§2) Binding proteins were applied to the chip in serial dilutions with a flow rate of 30 μl/min. Upon binding, analyte accumulated on the surface increasing the refractive index. This change in the refractive index was measured in real time and plotted as response or resonance units versus time. The association was performed for 120 seconds and the dissociation for 180 seconds. After each run, the chip surface was regenerated with 30 μl regeneration buffer (10 mM glycine pH 2.0 or pH 1.5) and equilibrated with running buffer. Binding studies were carried out using the Sierra SPR-32 system (Bruker); data evaluation was operated via the Sierra Analyser software, provided by the manufacturer, by the use of the Langmuir 1:1 model (RI=0).

hFAP-Fc = biological target: T2, hFAP-Fc (human, UniProt Q12884 26-760, limits assumed); assay: SPR, Fc-tagged FAP captured on immobilised protein A, pH 7.3, 1:1 Langmuir fit
T2 construct: also called Fc-tagged target (FAP)
T2 sequence (looked up): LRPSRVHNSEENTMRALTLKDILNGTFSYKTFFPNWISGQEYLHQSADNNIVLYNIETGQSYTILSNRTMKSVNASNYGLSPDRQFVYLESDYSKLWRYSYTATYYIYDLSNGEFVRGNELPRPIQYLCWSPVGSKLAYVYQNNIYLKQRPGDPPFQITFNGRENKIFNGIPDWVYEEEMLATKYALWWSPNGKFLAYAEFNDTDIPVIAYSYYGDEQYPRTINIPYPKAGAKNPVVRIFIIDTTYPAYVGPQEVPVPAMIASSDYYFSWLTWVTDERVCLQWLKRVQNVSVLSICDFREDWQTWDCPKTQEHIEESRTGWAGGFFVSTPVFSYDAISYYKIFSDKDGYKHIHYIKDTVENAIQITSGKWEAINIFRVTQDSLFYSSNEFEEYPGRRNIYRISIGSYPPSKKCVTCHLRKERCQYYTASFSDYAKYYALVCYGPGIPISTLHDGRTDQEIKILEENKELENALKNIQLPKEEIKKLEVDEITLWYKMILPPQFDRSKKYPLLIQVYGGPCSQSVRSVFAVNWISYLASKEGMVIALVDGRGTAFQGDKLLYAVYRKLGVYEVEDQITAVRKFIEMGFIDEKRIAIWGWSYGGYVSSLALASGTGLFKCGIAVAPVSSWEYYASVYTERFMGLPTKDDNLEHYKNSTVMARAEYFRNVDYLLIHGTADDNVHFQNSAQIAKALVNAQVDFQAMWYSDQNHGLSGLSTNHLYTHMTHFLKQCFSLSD
Description: as §1, §2

mouse serum albumin = biological target: T3, mouse serum albumin (mouse, UniProt P07724 25-608); assay: SPR
T3 construct: also called MSA

Chain of human serum albumin (P02768 25-609 limits assumed): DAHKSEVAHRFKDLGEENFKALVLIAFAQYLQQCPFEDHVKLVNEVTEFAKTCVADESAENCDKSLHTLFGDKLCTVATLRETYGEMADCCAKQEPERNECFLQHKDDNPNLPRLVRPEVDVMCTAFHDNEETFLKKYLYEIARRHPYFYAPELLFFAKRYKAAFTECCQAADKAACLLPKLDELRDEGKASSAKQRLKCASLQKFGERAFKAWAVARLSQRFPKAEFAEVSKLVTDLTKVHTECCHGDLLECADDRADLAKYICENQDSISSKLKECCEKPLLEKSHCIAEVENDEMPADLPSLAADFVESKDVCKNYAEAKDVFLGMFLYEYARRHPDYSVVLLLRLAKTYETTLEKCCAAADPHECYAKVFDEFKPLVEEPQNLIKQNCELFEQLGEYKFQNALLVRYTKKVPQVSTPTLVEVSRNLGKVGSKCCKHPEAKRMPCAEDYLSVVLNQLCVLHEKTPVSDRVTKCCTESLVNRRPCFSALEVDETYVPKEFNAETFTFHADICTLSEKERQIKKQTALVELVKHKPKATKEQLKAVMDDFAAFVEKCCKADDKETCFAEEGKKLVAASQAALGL

B1: 221873 (designed binder)
fusion protein: MQIFVKTLTGKTITLEVEPSDTTENVKAKIQDKEGIPPDQQTLAFVGKQLEDGRTLSDYNIQKESTLWLYLTLRAAMRIFVKTHTGKTITLDVEPSDTIENVKAKIQDKEGIPPDQQRLIWAGKQLEDGRTLSDYNIQEWAILHLVLRLRAALAEAKVLAIKELDKAGISDYYFNLINNAKTIEGVKALKAQIVAA
notes: order of parts as in the construct name; also called 206479_a05
B1 showed a Kd (human serum albumin) of 2.9 nM.

B2: 220902 (designed binder)
fusion protein: MQIFVKTLTGKTITLEVEPSDTTENVKAKIQDKEGIPPDQQTLAFVGKQLEDGRTLSDYNIQKESTLWLYLTLRAAMRIFVKTHTGKTITLDVEPSDTIENVKAKIQDKEGIPPDQQRLIWAGKQLEDGRTLSDYNIQEWAILHLVLRLRAALAEAKVLAIKELDKAGISNYYFNLINNAKTVEGVKALKAQIVAR
notes: order of parts as in the construct name; also called 206479_a34
Binder B2 has a Kd (human serum albumin) of 17.6 nM.

B3: 218689 (designed binder)
fusion protein: MQIFVWTRINKLITLEVEPSDTIENVKAKIQDKEGIPPDQQSLYWKGKQLEDGRTLSDYNINIWPNLYLSLRAALAEAKVLALKELDKYGISNYYKNLINNAKTVEGVKALKEAIVAALAEAKVLALKELDKYGISNYYKNLINNAKTVEGVKALKEAIVAA
notes: order of parts as in the construct name; also called 217832_d01_d01
For B3, the Kd (hFAP-Fc) was 3.9 nM and the Kd (human serum albumin) was 1.1 nM.

B4: 220518 (designed binder)
fusion protein: MQIFVKTLTPEWHIIGKTITLEVEPSDTIENVKAKIQDKEGIPPDQQNLAWAGKQLEDGRTLSDYNIQGGSMLMLKLHLRAAGGGGSGGGGSLAEAKVLALKELDKYGISNYYKNLINNAKTVEGVKALKEAIVAA
notes: also called 217990_d01
B4 showed a Kd (hFAP-Fc) of 3.7 nM and a Kd (human serum albumin) of 3.9 nM.

B5: fusion protein of SEQ ID NO: 54 (designed binder)
chain: MQIFVKTLTPEWHIIGKTITLEVEPSDTIENVKAKIQDKEGIPPDQQNLAWAGKQLEDGRTLSDYNIQGGSMLMLKLHLRAAGGGGSGGGGSMQIFVKTLTPEWHIIGKTITLEVEPSDTIENVKAKIQDKEGIPPDQQNLAWAGKQLEDGRTLSDYNIQGGSMLMLKLHLRAAGGGGSGGGGSLAEAKVLALKELDKYGISNYYKNLINNAKTVEGVKALKEAIVAAC
notes: also called 220519
B5 showed a Kd (hFAP-Fc) of 0.5 nM and a Kd (human serum albumin) of 9.7 nM.

B6: 220520 (designed binder)
fusion protein: MQIFVKTLTPEWHIIGKTITLEVEPSDTIENVKAKIQDKEGIPPDQQNLAWAGKQLEDGRTLSDYNIQGGSMLMLKLHLRAAGGGGSGGGGSLAEAKVLALKELDKYGISNYYKNLINNAKTVEGVKALKEAIVAAGGGGSGGGGSLAEAKVLALKELDKYGISNYYKNLINNAKTVEGVKALKEAIVAA
notes: also called 217990__d01__d01
In the case of B6, the Kd (hFAP-Fc) is reported as 7.8 nM and the Kd (human serum albumin) is reported as 1.7 nM.

B7: fusion protein of SEQ ID NO: 47 (designed binder)
chain: MQIFVKTLTPEWHIIGKTITLEVEPSDTIENVKAKIQDKEGIPPDQQNLAWAGKQLEDGRTLSDYNIQGGSMLMLKLHLRAAGGGGSGGGGSMQIFVKTLTPEWHIIGKTITLEVEPSDTIENVKAKIQDKEGIPPDQQNLAWAGKQLEDGRTLSDYNIQGGSMLMLKLHLRAAGGGGSGGGGSLAEAKVLALKELDKYGISNYYKNLINNAKTVEGVKALKEAIVAAGGGGSGGGGSLAEAKVLALKELDKYGISNYYKNLINNAKTVEGVKALKEAIVAAC
notes: also called 220521
With B7 the Kd (hFAP-Fc) was 0.5 nM and the Kd (human serum albumin) was 1.5 nM.

B8: fusion protein 218462 DOTA In (designed binder)
chain: MQIFVKTLTGKTITLEVEPSDTTENVKAKIQDKEGIPPDQQTLAFVGKQLEDGRTLSDYNIQKESTLWLYLTLRAAMRIFVKTHTGKTITLDVEPSDTIENVKAKIQDKEGIPPDQQRLIWAGKQLEDGRTLSDYNIQEWAILHLVLRLRAAGGGGSGGGGSGGGGSGGGGSLAEAKVLALKELDKYGISNYYKNLINNAKTIEGVKALKDEIVAA
modifications: Maleimide-DOTA coupled (site not stated), loaded with In
notes: also called 206479_(G4S)4_c20
In the case of B8, the Kd (mouse serum albumin) is reported as 82 nM.

B9: fusion protein 218462 DOTA Lu (designed binder)
chain: MQIFVKTLTGKTITLEVEPSDTTENVKAKIQDKEGIPPDQQTLAFVGKQLEDGRTLSDYNIQKESTLWLYLTLRAAMRIFVKTHTGKTITLDVEPSDTIENVKAKIQDKEGIPPDQQRLIWAGKQLEDGRTLSDYNIQEWAILHLVLRLRAAGGGGSGGGGSGGGGSGGGGSLAEAKVLALKELDKYGISNYYKNLINNAKTIEGVKALKDEIVAA
modifications: Maleimide-DOTA coupled (site not stated), loaded with Lu
notes: also called 206479_(G4S)4_c20
For B9, the Kd (mouse serum albumin) was 108 nM.
